Measured values: PubChem BioAssay AID485294 (National Center for Advancing Translational Sciences (NCATS), 2010)
The campaign covered roughly 370,000 compounds. About 150 (0.041%) were called active. Inconclusive means that the source gave no clear call. Such entries were picked first, then a sample of the others. Calls come from the whole dose curve; as a rule, active = well fitted inhibition curve with a large enough effect; inconclusive = small, poorly fitted or top-dose-only effect; inactive = flat fitted curve, though single readings scatter. Potencies of inconclusive entries are left out as doubtful fits.
Note: nearly all actives have a fitted effect of over 25% in size.
Potency is the fitted concentration of half-maximal effect; tags give direction and shape of the fitted curve.
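Throughout, for activity change, negative = inhibition: 0% = no-compound wells and -100% = no-enzyme wells.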

Each molecule was assayed against Beta-lactamase (Escherichia coli (strain K12)) (UniProt P00811) (assay: qHTS Inhibitors of AmpC Beta-Lactamase (assay with detergent)). Settings: AmpC hydrolysis of nitrocefin, absorbance 480 nm, 0.01% Triton; activity change, negative = inhibition: at 114 µM (top of the series).
Chain of UniProt P00811 (P00811 whole entry, looked up): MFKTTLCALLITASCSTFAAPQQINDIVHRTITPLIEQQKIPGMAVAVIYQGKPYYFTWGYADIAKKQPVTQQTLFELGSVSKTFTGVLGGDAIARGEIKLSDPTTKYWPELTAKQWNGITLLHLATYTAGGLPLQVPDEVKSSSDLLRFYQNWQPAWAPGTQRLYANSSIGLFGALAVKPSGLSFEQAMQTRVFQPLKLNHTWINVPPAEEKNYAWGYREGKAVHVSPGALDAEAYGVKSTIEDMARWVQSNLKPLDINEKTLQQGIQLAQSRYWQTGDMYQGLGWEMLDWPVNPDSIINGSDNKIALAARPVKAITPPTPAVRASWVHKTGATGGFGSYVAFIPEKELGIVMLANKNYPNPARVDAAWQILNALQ
Summary of the method: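 20 mM phosphate pH 7.0 + 0.01% (detergent screen) or 0.0001% Triton X-100; 5.3 nM AmpC reagent; cpd preinc 15 min RT; nitrocefin (800 uM stock) to start; A480 q20 s × 4 min; Activity was normalised to no-enzyme and no-compound control wells.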
For O=C(O)c1ccc(-n2nnnc2SCc2cccc(Br)c2)cc1, the Potency was inconclusive [inhibitor, full curve, poor fit]. O=C(O)CSc1nnc(-c2ccncc2)n1CCc1ccccc1 was tested, and the Potency was inconclusive [inhibitor, partial curve, poor fit]. For O=C(COc1cccc(C(F)(F)F)c1)NCC(c1ccco1)N1CCCCC1 (stereo not drawn), the Potency was inconclusive [inhibitor, full curve, poor fit]. With CCc1nc(=O)c(-c2ccccc2)c(C)n1-c1ccccc1 the “activity change, negative = inhibition” value was inactive: -9.78%. Cc1cccc(N2CCN(C(=O)CN3C(=O)COc4ccc(S(=O)(=O)N5CCCCCC5)cc43)CC2)c1C was tested, and the “activity change, negative = inhibition” value was inactive: -1.68%. For CC(C)c1ccc2oc(-c3ccc(NC(=O)c4ncn[nH]4)cc3)nc2c1, the Potency was inconclusive [inhibitor, partial curve]. For CC(=O)Nc1ccc(S(=O)(=O)NC2CC(=O)N(c3ccc(C)c(C)c3)C2)cc1 (stereo not drawn), the Potency was inconclusive [inhibitor, full curve, poor fit]. CCCCC1S/C(=N/N=C/c2ccc(OC)cc2)N(Cc2ccc(OC)cc2)C1=O (stereo not drawn) was tested, and the “activity change, negative = inhibition” value was inactive: -8.17%. Cc1ccc(-n2c(Cc3cccn3C)nnc2SCC(=O)Nc2ccc3c(c2)OCO3)cc1 was tested, and the Potency was inconclusive [inhibitor, single point]. With c1ccc(Cn2nnc3c(NCC4CCCO4)ncnc32)cc1 (stereo not drawn) the Potency was inconclusive [inhibitor, partial curve, poor fit]. For Cn1ncc(N=Cc2ccccc2O)c1C(=O)Nc1ccccc1, the Potency was inconclusive [inhibitor, full curve, poor fit]. In the case of COc1ccc(NCC(=O)N/N=C(\C)c2cc3ccccc3o2)cc1, the “activity change, negative = inhibition” value is reported as inactive: -9.35%. With O=C(Nc1nc(-c2ccccc2)c(C(=O)c2ccccc2)s1)c1ccc(S(=O)(=O)N2CCCC2)cc1 the Potency was inconclusive [inhibitor, full curve, poor fit]. With CCCCc1nc(C(N)=O)c2[nH]c(=O)n(-c3ccc(OC)c(OC)c3)c2n1 the Potency was inconclusive [inhibitor, partial curve]. In the case of CCn1cc(Br)c(C(=O)Nc2ccc(F)c(Cl)c2)n1, the “activity change, negative = inhibition” value is reported as inactive: -8.19%. CC(OC(=O)C1=COCCO1)C(=O)Nc1ccc(Cl)cn1 (stereo not drawn) was tested, and the Potency was inconclusive [inhibitor, single point]. COc1ccc(NC(=O)CN(C)C(=O)C(C)N2C(=O)c3ccccc3C2=O)cc1 (stereo not drawn) was tested, and the Potency was inconclusive [inhibitor, single point]. In the case of O=C(O)CN1C(=O)/C(=C/c2ccccc2Br)Oc2ccccc21, the Potency is reported as inconclusive [inhibitor, partial curve]. For Cc1nnc(NC(=O)CSc2ncnc3scc(-c4ccccc4)c23)s1, the Potency was inconclusive [inhibitor, partial curve, poor fit]. For CNC(=O)CSc1nccn1Cc1ccc(Cl)cc1, the Potency was inconclusive [inhibitor, full curve, poor fit]. With CSc1ccccc1NC(=O)c1cnc2scc(C)n2c1=O the Potency was inconclusive [inhibitor, full curve]. In the case of Cc1cccc(N(C(=O)Cc2cccs2)C(C(=O)NC2CCCC2)c2ccncc2)c1 (stereo not drawn), the “activity change, negative = inhibition” value is reported as inactive: 6.67%. For O=C(/C=C/c1c(Cl)cccc1Cl)Nc1ccncc1, the Potency was inconclusive [inhibitor, full curve, poor fit]. In the case of O=C(NO)c1ccccc1O, the Potency is reported as inconclusive [inhibitor, partial curve]. CSc1ccc(COC(=O)CCS(=O)(=O)c2ccc(C)cc2)cc1 was tested, and the Potency was inconclusive [inhibitor, full curve]. CCN(CC(=O)NCc1cccs1)C(=O)C1CC(=O)N(c2ccc(OC)cc2OC)C1 (stereo not drawn) was tested, and the Potency was inconclusive [inhibitor, full curve]. For O=C(Nc1cccc(F)c1)[C@H](CSCc1ccccc1)N1Cc2ccccc2C1=O, the “activity change, negative = inhibition” value was inactive: -10%. Cc1ccc(S(=O)(=O)ON2C(=O)c3cccc4cccc(c34)C2=O)cc1 was tested, and the Potency was inconclusive [inhibitor, partial curve]. For Cc1ccc(-c2nnc3ccc(SCC(=O)N4CCc5ccccc54)nn23)cc1, the Potency was inconclusive [inhibitor, full curve, poor fit]. O=C(CCCc1cccs1)Nc1ccc2c(c1)OCO2 was tested, and the Potency was inconclusive [inhibitor, full curve, poor fit]. For O=C(O)/C=C/c1cnn(-c2ccccc2)c1, the “activity change, negative = inhibition” value was inactive: -4.27%. Cn1c(=O)[nH]c2nc[nH]c2c1=O was tested, and the Potency was inconclusive [inhibitor, full curve]. In the case of COc1ccc([C@@H]2[C@@H]3C(=O)N(C(C)(C)C)C(=O)[C@@H]3[C@]3(C)C(=O)N(c4ccc(C(F)(F)F)cc4)C(=O)N23)cc1, the Potency is reported as inconclusive [inhibitor, single point]. For CC1CCCCN1CCNC(=O)CC1Oc2ccccc2NC1=O (stereo not drawn), the Potency was inconclusive [inhibitor, full curve, poor fit]. With CCOc1ccc(NC(=O)CN2C(=O)C3CC=CCC3C2=O)cc1 (stereo not drawn) the Potency was inconclusive [inhibitor, full curve, poor fit]. For Cn1c(=NC(=O)COc2ccccc2)sc2ccccc21, the “activity change, negative = inhibition” value was inactive: 1.79%. Nn1cnnc1N/N=C/c1ccc(F)cc1 was tested, and the Potency was inconclusive [inhibitor, full curve, poor fit]. With COc1cc(-c2nnc(-c3cc(OC)c(OC)c(OC)c3)o2)cc(OC)c1OC the Potency was inconclusive [inhibitor, full curve]. For OC1(c2ccc3ccccc3c2)CCN(Cc2ccccc2)C1 (stereo not drawn), the “activity change, negative = inhibition” value was inactive: -8.94%. In the case of CCC(=O)Nc1cc(C)c(NC(=O)c2ccco2)cn1, the “activity change, negative = inhibition” value is reported as inactive: 0.35%. For COc1ccccc1NC(=O)CCn1c(=O)sc2ccccc21, the Potency was inconclusive [inhibitor, full curve, poor fit]. CC(C)Nc1nc(-c2cccnc2)nc(-c2ccc(Cl)cc2)c1C#N was tested, and the “activity change, negative = inhibition” value was inactive: -4.98%. In the case of CN(C(=O)COC(=O)c1ccc(Br)c([N+](=O)[O-])c1)c1c(N)n(Cc2ccccc2)c(=O)[nH]c1=O, the “activity change, negative = inhibition” value is reported as inactive: -13.1%. For CCCCc1nnc(NC(=O)c2oc3ccc(OC)cc3c2C)s1, the Potency was inconclusive [inhibitor, single point]. In the case of C/C(=N\NC(=O)c1ccc(OC2CCCC2)cc1)c1ccc(C)s1, the Potency is reported as inconclusive [inhibitor, full curve, poor fit]. COc1ccc(C(=O)CSc2nnc(CNc3ccc(F)cc3)o2)cc1 was tested, and the Potency was inconclusive [inhibitor, single point]. For O=C(Nc1cccc(S(=O)(=O)N2CCCC2)c1)c1cc(-c2ccccn2)nc2ccccc12, the “activity change, negative = inhibition” value was inactive: -19.4%. In the case of O=c1cc(CS(=O)(=O)c2ccccc2)nc(-c2ccncc2)[nH]1, the Potency is reported as inconclusive [inhibitor, full curve, poor fit]. With CCOc1ccc(C(=O)Nc2nc(C)c(C(=O)OC)s2)cc1 the “activity change, negative = inhibition” value was inactive: -1.74%. In the case of CCOc1ccc(-n2ccnc2SCC(=O)Nc2nc3ccc(C)cc3s2)cc1, the “activity change, negative = inhibition” value is reported as inactive: 3.34%. With Cc1cccc(Oc2ncnc(N)c2[N+](=O)[O-])c1C the Potency was inconclusive [inhibitor, full curve, poor fit]. With CCOc1ccc(-n2c(SCC(=O)NCc3ccco3)nc3ccccc3c2=O)cc1 the Potency was inconclusive [inhibitor, partial curve]. In the case of Cc1ccc2nc(-c3ccc(SCC(=O)Nc4nc(C)cs4)nc3)[nH]c2c1, the Potency is reported as inconclusive [inhibitor, full curve]. For Cc1cccc(NC(=O)CC2NCCNC2=O)c1 (stereo not drawn), the “activity change, negative = inhibition” value was inactive: 6.11%. For CCC1(CC)NC(=O)N(CC(=O)OCC(=O)NC(=O)c2ccccc2)C1=O, the Potency was inconclusive [inhibitor, full curve, poor fit]. With CCC(C(=O)Nc1ccncc1)c1ccccc1 (stereo not drawn) the “activity change, negative = inhibition” value was inactive: 0.552%. CC1CCc2c(sc3ncn(Cc4ccc(C(=O)O)cc4)c(=O)c23)C1 (stereo not drawn) was tested, and the Potency was inconclusive [inhibitor, partial curve]. For CC(O)C(NS(=O)(=O)c1ccc(Cl)cc1)C(=O)OCC(=O)N1CCN(c2ccccc2)CC1 (stereo not drawn), the Potency was inconclusive [inhibitor, full curve, poor fit]. COCCCN1C(=O)c2[nH]nc(-c3ccccc3O)c2C1c1cccc(Cl)c1 (stereo not drawn) was tested, and the “activity change, negative = inhibition” value was inactive: 1.85%. For S=C(NCC1CCCO1)NC1CCCC1 (stereo not drawn), the Potency was inconclusive [inhibitor, partial curve]. In the case of Cc1cc(SCC(=O)OC(C)C(=O)N(C)c2ccccc2)nc2ccccc12 (stereo not drawn), the Potency is reported as inconclusive [inhibitor, full curve, poor fit]. With Cc1c(C(=O)NC2=NCCS2)oc2ccccc12 the “activity change, negative = inhibition” value was inactive: 2.94%. CC(C(=O)Nc1ccc(S(=O)(=O)N2CCCC2)cc1)N1CCCC(C(N)=O)C1 (stereo not drawn) was tested, and the Potency was inconclusive [inhibitor, full curve, poor fit]. In the case of COc1cc(OC)c(OC)cc1CN1CCN(Cc2cccc(F)c2)CC1, the Potency is reported as inconclusive [inhibitor, partial curve, poor fit]. For CCC(C)(C)n1nnnc1C(c1ccc(OC)c(OC)c1)N1CCN(c2cccc(OC)c2)CC1 (stereo not drawn), the Potency was inconclusive [inhibitor, full curve]. With c1ccc2c(c1)nc(-c1ccncc1)n1nnnc21 the Potency was inconclusive [inhibitor, partial curve, poor fit]. With Cc1cccc(N2CCN(C(=O)CNC(=O)C3CCCCC3)CC2)c1C the Potency was inconclusive [inhibitor, full curve, poor fit]. For CCn1c(=N)n(CC(O)COc2cccc(C)c2)c2ccccc21 (stereo not drawn), the Potency was inconclusive [inhibitor, single point].
